The values that follow come from publication PMC12820563, “FoxP3 forms a head-to-head dimer in vivo and stabilizes its multimerization on adjacent microsatellites”.

The other results are listed elsewhere or left out.

The experiment deals with T1, MBP-FoxP1dN (Mus musculus, UniProt P58462 326-579).
T1 sequence: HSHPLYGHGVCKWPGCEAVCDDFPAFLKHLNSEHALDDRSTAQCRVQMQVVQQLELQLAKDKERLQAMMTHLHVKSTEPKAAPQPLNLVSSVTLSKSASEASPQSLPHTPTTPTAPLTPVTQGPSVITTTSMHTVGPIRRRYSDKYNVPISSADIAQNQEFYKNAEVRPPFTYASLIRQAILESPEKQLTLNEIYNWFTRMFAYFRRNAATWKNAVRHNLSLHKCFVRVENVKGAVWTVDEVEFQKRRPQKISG
Nature of the experiment: PD-seq (MBP pull-down with sequencing); 20 mM Tris-HCl pH 7.5, 100 mM NaCl, 1.5 mM MgCl2, 0.4 uM protein, 0.1 uM dsDNA library, 30 min, room temperature, amylose pull-down; high values mean tight binding. The conditions noted are these: protein: recombinant; tags: His6-MBP; chain copies: 2; dsDNA, one strand shown. A digest of the protocol:
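The N-terminus-lacking fragment of mouse FoxP3 or FoxP1 carried a His6-MBP tag and was expressed in E. coli. At 0.4 µM it was incubated with 0.1 µM Klenow-filled degenerate double-stranded DNA library for 30 min at room temperature in Tris pH 7.5 buffer with NaCl and MgCl2, and complexes were caught on amylose resin, washed three times, released with proteinase K, PCR-barcoded and Illumina-sequenced. Binding is reads-per-million enrichment of pull-down over input with replicates pooled.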
“GATGATTGTTCTCCCAGCTGATGAATTGGCTAATTCGAGTAAACAAATTTTCCTAATCTTTCTGTTCAAGCGCCATCTAC”: the binding signal was 0.945 RPM ratio (pull-down/input).

Turning to “GATGATTGTTCTCCCAGCTGATGAATTTGTCGGGTCGAGTAAACAAATTTTCCTAATCTTTCTGTTCAAGCGCCATCTAC”, the binding signal is 0.897 RPM ratio (pull-down/input).

As to “GATGATTGTTCTCCCAGCTGATGAATTCCTGTAGTCGAGTAAACAAATTTTCCTAATCTTTCTGTTCAAGCGCCATCTAC”, the binding signal was 0.949 RPM ratio (pull-down/input).

As for “GATGATTGTTCTCCCAGCTGATGAATTGCAATAGTCGAGTAAACAAATTTTCCTAATCTTTCTGTTCAAGCGCCATCTAC”, the binding signal was 1.19 RPM ratio (pull-down/input).

“GATGATTGTTCTCCCAGCTGATGAATTCATAAAATCGAGTAAACAAATTTTCCTAATCTTTCTGTTCAAGCGCCATCTAC”: the binding signal was 1.11 RPM ratio (pull-down/input).

With “GATGATTGTTCTCCCAGCTGATGAATTGTAATAGTCGAGTAAACAAATTTTCCTAATCTTTCTGTTCAAGCGCCATCTAC”, the binding signal is 1.1 RPM ratio (pull-down/input).

For “GATGATTGTTCTCCCAGCTGATGAATTGATCATGTCGAGTAAACAAATTTTCCTAATCTTTCTGTTCAAGCGCCATCTAC”, the binding signal is 1 RPM ratio (pull-down/input).

As to “GATGATTGTTCTCCCAGCTGATGAATTTTTGTAGTCGAGTAAACAAATTTTCCTAATCTTTCTGTTCAAGCGCCATCTAC”, the binding signal is 1.29 RPM ratio (pull-down/input).

With “GATGATTGTTCTCCCAGCTGATGAATTTCCCCAATCGAGTAAACAAATTTTCCTAATCTTTCTGTTCAAGCGCCATCTAC”, the binding signal was 1.02 RPM ratio (pull-down/input).

Turning to “GATGATTGTTCTCCCAGCTGATGAATTCATGGTCTCGAGTAAACAAATTTTCCTAATCTTTCTGTTCAAGCGCCATCTAC”, the binding signal was 0.794 RPM ratio (pull-down/input).

“GATGATTGTTCTCCCAGCTGATGAATTTTTTGAATCGAGTAAACAAATTTTCCTAATCTTTCTGTTCAAGCGCCATCTAC”: the binding signal is 1.1 RPM ratio (pull-down/input).

In the case of “GATGATTGTTCTCCCAGCTGATGAATTAACTGCATCGAGTAAACAAATTTTCCTAATCTTTCTGTTCAAGCGCCATCTAC”, the binding signal was 1.19 RPM ratio (pull-down/input).

On to “GATGATTGTTCTCCCAGCTGATGAATTAATTGTTTCGAGTAAACAAATTTTCCTAATCTTTCTGTTCAAGCGCCATCTAC”, for which the binding signal was 1.44 RPM ratio (pull-down/input).

On to “GATGATTGTTCTCCCAGCTGATGAATTTTGCTCTTCGAGTAAACAAATTTTCCTAATCTTTCTGTTCAAGCGCCATCTAC”, for which the binding signal was 0.708 RPM ratio (pull-down/input).

Regarding “GATGATTGTTCTCCCAGCTGATGAATTGGCTCACTCGAGTAAACAAATTTTCCTAATCTTTCTGTTCAAGCGCCATCTAC”, the binding signal was 0.857 RPM ratio (pull-down/input).

For the sequence “GATGATTGTTCTCCCAGCTGATGAATTCCTTCCATCGAGTAAACAAATTTTCCTAATCTTTCTGTTCAAGCGCCATCTAC”, the binding signal is 0.876 RPM ratio (pull-down/input).

On to “GATGATTGTTCTCCCAGCTGATGAATTATCTTATTCGAGTAAACAAATTTTCCTAATCTTTCTGTTCAAGCGCCATCTAC”, for which the binding signal is 0.949 RPM ratio (pull-down/input).

On to “GATGATTGTTCTCCCAGCTGATGAATTTCAATCTTCGAGTAAACAAATTTTCCTAATCTTTCTGTTCAAGCGCCATCTAC”, for which the binding signal is 0.875 RPM ratio (pull-down/input).

For the sequence “GATGATTGTTCTCCCAGCTGATGAATTAGGCTATTCGAGTAAACAAATTTTCCTAATCTTTCTGTTCAAGCGCCATCTAC”, the binding signal was 0.885 RPM ratio (pull-down/input).

As to “GATGATTGTTCTCCCAGCTGATGAATTCGCAGTTTCGAGTAAACAAATTTTCCTAATCTTTCTGTTCAAGCGCCATCTAC”, the binding signal is 0.859 RPM ratio (pull-down/input).

Turning to “GATGATTGTTCTCCCAGCTGATGAATTAGGAGGGTCGAGTAAACAAATTTTCCTAATCTTTCTGTTCAAGCGCCATCTAC”, the binding signal is 0.796 RPM ratio (pull-down/input).

For “GATGATTGTTCTCCCAGCTGATGAATTCCCAGCCTCGAGTAAACAAATTTTCCTAATCTTTCTGTTCAAGCGCCATCTAC”, the binding signal was 0.768 RPM ratio (pull-down/input).

Regarding “GATGATTGTTCTCCCAGCTGATGAATTACTACGGTCGAGTAAACAAATTTTCCTAATCTTTCTGTTCAAGCGCCATCTAC”, the binding signal was 0.974 RPM ratio (pull-down/input).

Take “GATGATTGTTCTCCCAGCTGATGAATTATGATCCTCGAGTAAACAAATTTTCCTAATCTTTCTGTTCAAGCGCCATCTAC”: the binding signal was 0.908 RPM ratio (pull-down/input).

Consider “GATGATTGTTCTCCCAGCTGATGAATTGACATTCTCGAGTAAACAAATTTTCCTAATCTTTCTGTTCAAGCGCCATCTAC”, for which the binding signal was 1.25 RPM ratio (pull-down/input).

As to “GATGATTGTTCTCCCAGCTGATGAATTTACAAATTCGAGTAAACAAATTTTCCTAATCTTTCTGTTCAAGCGCCATCTAC”, the binding signal is 1.54 RPM ratio (pull-down/input).

For “GATGATTGTTCTCCCAGCTGATGAATTCGGGACTTCGAGTAAACAAATTTTCCTAATCTTTCTGTTCAAGCGCCATCTAC”, the binding signal is 0.778 RPM ratio (pull-down/input).

Regarding “GATGATTGTTCTCCCAGCTGATGAATTTGCTCAGTCGAGTAAACAAATTTTCCTAATCTTTCTGTTCAAGCGCCATCTAC”, the binding signal was 0.919 RPM ratio (pull-down/input).

“GATGATTGTTCTCCCAGCTGATGAATTAACATATTCGAGTAAACAAATTTTCCTAATCTTTCTGTTCAAGCGCCATCTAC”: the binding signal was 1.25 RPM ratio (pull-down/input).

Regarding “GATGATTGTTCTCCCAGCTGATGAATTTGCGGCGTCGAGTAAACAAATTTTCCTAATCTTTCTGTTCAAGCGCCATCTAC”, the binding signal was 0.949 RPM ratio (pull-down/input).

Take “GATGATTGTTCTCCCAGCTGATGAATTGTCTGGGTCGAGTAAACAAATTTTCCTAATCTTTCTGTTCAAGCGCCATCTAC”: the binding signal is 0.864 RPM ratio (pull-down/input).
